Measurements taken from the supplement of paper PMC4723716.
± gives the uncertainty stated by the source. Over roughly 9,900 compounds, “viability index relative to DMSO control” has its median near 1; the lowest 2% begin near 0.85. The list shows a part of the results.

tested on: Plasmodium falciparum NF54 stage V gametocytes; test: viability index relative to DMSO control (fraction); higher = less gametocyte killing; conditions: 2.5 µM, library set: Broad Institute DOS, incubation time: 72 h
Outline: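 Viability index is the count of red-stained particles in a well divided by the plate mean of solvent-only wells. Particles of 20–70 µm2 were counted in one imaged field per well after one to two hours with 3 µl of 2.5 µM MitoTracker Red CMXRos and 0.13% saponin. Before staining, P. falciparum NF54 stage V gametocytes in serum-free medium (0.75% gametocytemia, 1.25% hematocrit, 10 µl, 1,536-well plates) were kept with compound at 2.5 µM for 72 hr at 37°C under low oxygen.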

Compound	viability index
CN(C)CC#Cc1ccc([C@@H]2[C@@H](CO)N3C(=O)CN(C(=O)CN(C)C)C[C@H]23)cc1	0.989 ± 0.024
COc1ccc(S(=O)(=O)Nc2cccc3c2O[C@H](CN(C)CC2CCCCC2)[C@@H](C)CN([C@H](C)CO)C3=O)cc1	0.913 ± 0.053
CN1CCN(C(=O)C[C@H]2CC[C@@H]3[C@H](COc4ccc(NC(=O)C5CCOCC5)cc4C(=O)N3C)O2)CC1	1.08 ± 0.019
COc1ccc2c3c([C@H](CO)N(Cc4cc(OC)cc(OC)c4)C[C@]33CCN(CC3)S(=O)(=O)c3cn(C)cn3)n(C)c2c1	0.981 ± 0.032
CC(C)NC(=O)Nc1ccc2c(c1)C(=O)N([C@H](C)CO)C[C@H](C)[C@H](CN(C)C(=O)C1CCCCC1)OCCCC[C@@H](C)O2	1.03 ± 0.018
Cc1noc(C)c1NC(=O)N1C[C@@H](O)COC[C@H]2O[C@@H](CC(=O)N[C@@H]3CCN(Cc4ccccc4)C3)CC[C@@H]21	0.994 ± 0.052
O=C(NC[C@H]1[C@@H](c2ccccc2)[C@H](CO)N1Cc1cccnc1)c1ccccn1	1.025 ± 0.0078
COCC#Cc1ccc2c(c1)O[C@@H](CN(C)C(=O)C1CCOCC1)[C@H](C)CN([C@@H](C)CO)S2(=O)=O	1.05 ± 0.063
O=C(Nc1cccc(Cl)c1)N[C@@H]1CC[C@H](CCn2cc(Cc3ccccc3)nn2)O[C@H]1CO	1.15 ± 0.057
OC[C@H]1[C@H](c2ccc(C#CC3(O)CCCC3)cc2)[C@@H]2CN(Cc3cncnc3)CCCCN12	1.05 ± 0.052
O=C(c1cccc(F)c1)N1CC(=O)N2[C@@H](CO)[C@H](c3ccc(C4=CCCCC4)cc3)[C@@H]2C1	1.05 ± 0.043
C[C@H](CO)N1C[C@H](C)[C@@H](CN(C)C(=O)CCC(F)(F)F)OCCCC[C@H](C)Oc2ccc(NC(=O)C3CCCCC3)cc2C1=O	1.12 ± 0.084
COc1ccc(cc1)S(=O)(=O)N1C[C@@]2(C1)CN([C@@H](CO)c1c2c2ccc(OC)cc2n1C)C(=O)c1cccnc1	0.976 ± 0.063
N#C[C@@H]1[C@@H](c2ccccc2-c2ccccc2)[C@H](CO)N1C(=O)Cc1ccncc1	1.1 ± 0.2
COc1ccccc1-c1ccc2n(c1=O)C[C@@H]1[C@@H](CO)[C@H](C(=O)NCc3ccccc3Cl)N[C@H]21	1.03 ± 0.013
CN(C)C(=O)c1cccc(-c2ccccc2[C@H]2[C@@H](C#N)N(C(=O)C3CCCCC3)[C@H]2CO)c1	1.06 ± 0.038
CN(C)CC#Cc1ccc([C@@H]2[C@H](C#N)N[C@@H]2CO)cc1	1.12 ± 0.092
O=C1C[C@H](c2ccccc2)C(=O)N[C@@H](c2ccccc2)C/C=C\C[C@@H](c2ccccc2)N1	0.971 ± 0.084
C[C@@H]1CN([C@H](C)CO)C(=O)c2cc(NS(=O)(=O)c3ccc(F)cc3)ccc2O[C@@H]1CN(C)C(=O)Nc1ccccc1	0.966 ± 0.11
O=C(C[C@H]1CC[C@H](NC(=O)CN2CCOCC2)[C@@H](CO)O1)NC1CCC1	1.1 ± 0.052
O=C(c1cccc(F)c1)N1CCCCN2[C@H](CO)[C@H](c3ccc(C#CC4(O)CCCC4)cc3)[C@@H]2C1	1.03 ± 0.052
CCCC(=O)N1C[C@@]2(C1)CN([C@H](CO)c1c2c2ccc(OC)cc2n1C)C(=O)Nc1cccc(F)c1	0.9437 ± 0.0032
CC(C)N(C[C@@H]1N[C@@H](CO)[C@@H]1c1ccccc1)S(=O)(=O)c1ccccc1	0.9764 ± 0.0057
COc1ccc(C[C@@H]2CCn3nncc3COC[C@H](c3ccccc3)NC2=O)cc1	0.984 ± 0.013

Compound	viability index
CS(=O)(=O)Nc1ccc2c(c1)[C@H]1C[C@@H](CC(=O)NCCc3ccccc3)O[C@@H](CO)[C@H]1O2	1.02 ± 0.11
Cc1ccc(S(=O)(=O)N(C)C[C@H]2Oc3c(NS(C)(=O)=O)cccc3C(=O)N([C@@H](C)CO)C[C@@H]2C)cc1	1.01 ± 0.067
CC(C)N(C[C@@H]1[C@@H](c2ccccc2)[C@@H](CO)N1S(C)(=O)=O)C(=O)CN(C)C	1.016 ± 0.006
CCCC#Cc1ccc([C@@H]2[C@H]3CN(C(=O)Nc4cccc(F)c4)CC(=O)N3[C@H]2CO)cc1	1.04 ± 0.031
O=C(C[C@H]1CC[C@@H]2[C@H](COC[C@@H](O)CN2Cc2ccc3c(c2)OCO3)O1)N1CCCCC1	1.0068 ± 0.00093
COC(=O)C[C@H]1CC[C@@H]2[C@@H](COc3ccc(NS(=O)(=O)c4ccc(C)cc4)cc3C(=O)N2C)O1	1.1 ± 0.045
CCCNC(=O)N1CC2(C1)[C@H](c1ccccc1)[C@H](CO)N2CC1CCOCC1	1.04 ± 0.053
CCCNC(=O)N1C[C@]2(CN(Cc3cccnc3)C2)c2c([C@H]1CO)n(C)c1cc(OC)ccc21	1.03 ± 0.2
CO[C@H](CN(C)CC1CCOCC1)[C@H](C)CN(C(=O)Nc1ccc(F)cc1)[C@@H](C)CO	1.028 ± 0.0033
COc1ccc2c3c([nH]c2c1)[C@H](CO)N(Cc1cccnc1)C[C@]31CCN(CC1)C(=O)CN(C)C	0.93 ± 0.046
Cc1noc(C)c1NC(=O)N(C)C[C@H]1Oc2c(NC(=O)CCC(F)(F)F)cccc2C(=O)N([C@H](C)CO)C[C@@H]1C	1.03 ± 0.066
Cc1ccc(S(=O)(=O)Nc2ccc3c(c2)C(=O)N([C@H](C)CO)C[C@H](C)[C@@H](CN(C)Cc2ccc(C(F)(F)F)cc2)O3)cc1	0.937 ± 0.055
C[C@@H]1CN([C@H](C)CO)C(=O)Cc2cc(NC(=O)Cn3cnnn3)ccc2O[C@@H]1CN(C)S(=O)(=O)c1ccc(Cl)cc1	1.08 ± 0.087
C[C@H]1CN([C@@H](C)CO)C(=O)c2ccccc2-c2ccccc2CO[C@H]1CN(C)C(=O)[C@@H](Cc1ccccc1)N(C)C	1.08 ± 0.0022
COc1ccc2c3c([nH]c2c1)[C@H](CO)N(C[C@]31CN(C1)C(=O)Nc1cccc(F)c1)C(=O)c1cccnc1	1.03 ± 0.026
O=C1CNC[C@H]2[C@@H](c3ccc(-c4ccccc4F)cc3)[C@@H](CO)N12	0.994 ± 0.034
CC(C)CC#Cc1ccc([C@@H]2[C@H]3CN(C(=O)Nc4cc(F)ccc4F)CC(=O)N3[C@H]2CO)cc1	1.06 ± 0.053
COc1ccc(CNC(=O)C[C@H]2C[C@@H]3c4cc(N(C)C)ccc4O[C@@H]3[C@H](CO)O2)cc1	1.19 ± 0.035
C[C@@H]1CN([C@H](C)CO)S(=O)(=O)c2ccc(C#Cc3ccccc3F)cc2O[C@@H]1CN(C)C(=O)Cc1cccnc1	0.983 ± 0.017
CO[C@H]1CN(C)C(=O)c2cc(NC(C)=O)ccc2OC[C@@H](C)N(Cc2ccncc2)C[C@@H]1C	1.073 ± 0.0071
O=C(Nc1cccc(Cl)c1)N[C@H]1CC[C@H](CCn2cc(Cc3ccccc3)nn2)O[C@@H]1CO	1.1 ± 0.031
C[C@H](CO)N1C[C@H](C)[C@H](CN(C)S(=O)(=O)c2ccccc2C#N)OCc2ccccc2-c2c(n(C)c3ccccc23)C1=O	1.02 ± 0.057
CN(C)CC(=O)N1CC2(C1)[C@H](c1ccccc1)[C@H](CO)N2Cc1cc(F)ccc1F	1.04 ± 0.056
O=C(CN1CCOCC1)N1CC[C@@H]2[C@H]1c1cc(-c3ccccc3F)ccc1N[C@@H]2CO	1.02 ± 0.024

Compound	viability index
O=C(NC1CCCCC1)N1C[C@@H]2N[C@H](C1)[C@@H]2c1ccc(-c2ccc(F)cc2)cc1	1.02 ± 0.08
C[C@H](CO)N1C[C@H](C)[C@H](CN(C)Cc2ccc(-c3ccccc3)cc2)Oc2c(NS(C)(=O)=O)cccc2C1=O	0.827 ± 0.011
C[C@@H]1CN([C@H](C)CO)C(=O)c2ccccc2-c2ccccc2CO[C@@H]1CN(C)Cc1cccnc1	0.999 ± 0.019
O=C(NC1CCCC1)N1CCCCN2[C@@H](CO)[C@H](c3ccc(-c4cccnc4)cc3)[C@@H]2C1	1.065 ± 0.0056
O=C(NC[C@H]1[C@H](c2ccccc2)[C@H](CO)N1Cc1ccccn1)C1CCCC1	0.997 ± 0.059
C/C=C/c1ccc([C@@H]2[C@H]3CNC[C@@H]2N3S(=O)(=O)c2cccc(F)c2)cc1	1.09 ± 0.036
O=C(CC1CC1)N1CC(=O)N2[C@@H](CO)[C@H](c3ccc(/C=C/c4ccccc4)cc3)[C@@H]2C1	1.034 ± 0.0053
COc1cccc(S(=O)(=O)N2CC[C@@H]3[C@@H](CO)Nc4ccc(C#Cc5cccnc5)cc4[C@@H]32)c1	1.15 ± 0.025
C[C@H]1CN([C@@H](C)CO)C(=O)Cc2cc(N(C)C)ccc2O[C@H]1CN(C)Cc1ccc(-c2ccccc2)cc1	0.979 ± 0.06
C[C@H]1CCCCO[C@@H](CN(C)C(=O)Cc2ccccc2)[C@@H](C)CN([C@@H](C)CO)C(=O)c2cc(NS(C)(=O)=O)ccc2O1	1.06 ± 0.014
Cc1noc(C)c1NC(=O)N[C@H]1C=C[C@H](CC(=O)Nc2ccc(-c3ccccc3)cc2)O[C@@H]1CO	1.02 ± 0.041
CN1[C@H](CO)[C@@H]2c3ccccc3N(C(=O)C3CCCCC3)C[C@@H]21	1.01 ± 0.051
C[C@H]1CN([C@@H](C)CO)C(=O)c2cc(NC(=O)NC3CCCCC3)ccc2O[C@@H]1CN(C)S(C)(=O)=O	0.942 ± 0.062
C[C@H]1CN([C@@H](C)CO)C(=O)c2c(c3ccccc3n2C)-c2ccccc2CO[C@@H]1CN(C)C(=O)NC1CCCCC1	1.04 ± 0.11
COc1ccc(S(=O)(=O)Nc2ccc3c(c2)[C@@H]2C[C@H](CC(=O)N(C)C)O[C@@H](CO)[C@@H]2O3)cc1	1.14 ± 0.04
CCC(=O)N1[C@@H]2Cn3c(cccc3=O)[C@H]1[C@@H](C(=O)NC1Cc3ccccc3C1)[C@@H]2CO	1.05 ± 0.026
C[C@@H]1CN([C@@H](C)CO)C(=O)Cc2cc(N(C)C)ccc2O[C@@H]1CN(C)Cc1ccc(-c2ccccc2)cc1	1.013 ± 0.0053
C[C@@H]1CN([C@@H](C)CO)S(=O)(=O)c2ccc(C#CCC3CCCC3)cc2O[C@@H]1CN(C)C(=O)c1cnccn1	0.899 ± 0.07
Cc1ccc(S(=O)(=O)N(C)C[C@H]2Oc3c(NS(C)(=O)=O)cccc3C(=O)N([C@H](C)CO)C[C@@H]2C)cc1	0.92 ± 0.059
OC[C@H]1[C@H]2c3ccccc3NC[C@H]2N1CC1CCOCC1	1.03 ± 0.068
CO[C@H](CN(C)Cc1ccc2c(c1)OCO2)[C@@H](C)CN(C(=O)c1ccccc1)[C@H](C)CO	1.05 ± 0.048
CO[C@H]1CN(C)C(=O)c2ccc(NC(=O)Nc3ccccc3)cc2OC[C@H](C)N(C(=O)CC2CC2)C[C@@H]1C	1.05 ± 0.11
CN1C(=O)c2cc(NC(=O)Nc3ccccc3Cl)ccc2OC[C@@H]2O[C@H](CC(=O)O)CC[C@@H]21	0.951 ± 0.083
